B1: Caulobacter ParB omega fusion; a variant is named by its letters at X, in order, B8GW30 (parent)
chain: MESVVVGEPGMSEGRRGLGRGLSALLGEVDAAPAQAPGEQLGGSREAPIEILQRNPDQPRRTFREEDLEDLSNSIREKGVLQPILVRPSPDTAGEYQIVAGERAWRAAQRAGLKTVPIMVRELDDLAVLEIGIIENVQRADLNVLEEALSYKVLMEKFERTQENIAQTIGKSXSHVANXMRLLXLPDEVQSYLVSGELTAXHARAIAAAADPVALAKQIIEGGLSVRETEALARKAPNLSAGKSKGGRPPRVKDTDTQALESDLSSVLGLDVSIDHRGSTGTLTITYATLEQLDDLCNRLTRGI

The source of these data is a collection of fitness landscapes (doi:10.1016/j.celrep.2020.107928).

The full ranking holds about 81,000 sequences; the median of “one-hybrid fitness for binding NBS DNA” is about -0.1, and the highest 2% start at about 0.36. The list shows a part of the results. Bounds are passed on as bounds.

Variants of B1 are the subject of the assay. The assay is described as follows: one-hybrid fitness for binding NBS DNA (the Noc-binding site; scaled: cognate 1, non-cognate 0); higher = stronger binding. The note with it: with NBS DNA site. In short, it runs like this:
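Fitness here means the log change in variant-to-wild-type read ratio between plasmids sequenced before and after selection. That scale was set so cognate equals 1 and non-cognate equals 0. The selection was a bacterial one-hybrid screen of Caulobacter ParB libraries, four specificity codons randomised, in E. coli USO carrying a HIS3 reporter with the site 19 bp from the promoter, grown 48 hours at 37°C on M9-minus-histidine with 0.1 mM IPTG and 5 mM 3-AT.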
As to TMFS, the “one-hybrid fitness for binding NBS DNA” value was not above 0.2.

Consider VPVF, for which the “one-hybrid fitness for binding NBS DNA” value was not above 0.2.

Take TKPK: the “one-hybrid fitness for binding NBS DNA” value was not above 0.2.

Take QLFF: the “one-hybrid fitness for binding NBS DNA” value is not above 0.2. As to TFPM, the “one-hybrid fitness for binding NBS DNA” value was not above 0.2. In the case of SIPV it was not above 0.2; in that of HAMN, not above 0.2. In the case of RCKR it was 0.76.

On to PERD, for which the “one-hybrid fitness for binding NBS DNA” value was not above 0.2.

GFLS: the “one-hybrid fitness for binding NBS DNA” value is not above 0.2.

Regarding GASC, the “one-hybrid fitness for binding NBS DNA” value was not above 0.2. In the case of IMHG it was not above 0.2. With PRHC, the “one-hybrid fitness for binding NBS DNA” value is not above 0.2.

On to LVCR, for which the “one-hybrid fitness for binding NBS DNA” value is not above 0.2.

As for TSSF, the “one-hybrid fitness for binding NBS DNA” value was not above 0.2. In the case of SSIL it was not above 0.2; in that of SHIY, not above 0.2. In the case of SVCA it was not above 0.2. In the case of MTTT it was not above 0.2. As to CLWI, the “one-hybrid fitness for binding NBS DNA” value is not above 0.2.

For the variant WLGG, the “one-hybrid fitness for binding NBS DNA” value was not above 0.2. In the case of HTPE it was not above 0.2; in that of EMIK, not above 0.2; in that of LSGN, not above 0.2. In the case of YVAG it was not above 0.2.

For TGSL, the “one-hybrid fitness for binding NBS DNA” value is not above 0.2. For PGLG, the “one-hybrid fitness for binding NBS DNA” value was not above 0.2. In the case of KRIE it was not above 0.2. In the case of QWAT it was not above 0.2. In the case of DPLM it was not above 0.2. Turning to RPVR, the “one-hybrid fitness for binding NBS DNA” value came to 0.204. In the case of TSLM it was not above 0.2; in that of PRML, not above 0.2. In the case of RWPR it was not above 0.2. In the case of RGSE it was not above 0.2; in that of AMPT, not above 0.2; in that of WPQL, not above 0.2.

Regarding REYT, the “one-hybrid fitness for binding NBS DNA” value is not above 0.2.

On to CLAR, for which the “one-hybrid fitness for binding NBS DNA” value was not above 0.2. As for PTCS, the “one-hybrid fitness for binding NBS DNA” value is not above 0.2. In the case of GPNP it was not above 0.2; in that of VSWL, not above 0.2; in that of YTKS, not above 0.2.

For NPSW, the “one-hybrid fitness for binding NBS DNA” value is not above 0.2. In the case of FAKH it was not above 0.2; in that of NLSR, not above 0.2; in that of RNRS, 0.491. In the case of LISP it was not above 0.2; in that of MMDS, not above 0.2. On to GTVV, for which the “one-hybrid fitness for binding NBS DNA” value is not above 0.2. In the case of DESW it was not above 0.2. In the case of MPFY it was not above 0.2; in that of PFFT, not above 0.2; in that of MDHR, not above 0.2. In the case of RMED it was not above 0.2; in that of RHLD, not above 0.2. For FNKT, the “one-hybrid fitness for binding NBS DNA” value is not above 0.2. Regarding NQAG, the “one-hybrid fitness for binding NBS DNA” value was not above 0.2. In the case of TAKA it was not above 0.2; in that of YIKR, not above 0.2. In the case of RWRA it was not above 0.2; in that of GSAP, not above 0.2; in that of LNQL, not above 0.2. In the case of QSRK it was 0.376; in that of WAYT, not above 0.2; in that of GGPR, not above 0.2. For TQIR, the “one-hybrid fitness for binding NBS DNA” value is not above 0.2. In the case of LPKV it was not above 0.2. In the case of GVSH it was not above 0.2; in that of MVMR, not above 0.2; in that of QKAP, not above 0.2. In the case of ALHA it was not above 0.2. In the case of GQHT, the “one-hybrid fitness for binding NBS DNA” value was not above 0.2.

Take AMSV: the “one-hybrid fitness for binding NBS DNA” value is not above 0.2. Consider ICRN, for which the “one-hybrid fitness for binding NBS DNA” value was not above 0.2. In the case of DVLR it was not above 0.2; in that of RSNH, 0.223. Take DITC: the “one-hybrid fitness for binding NBS DNA” value was not above 0.2.

With VWSV, the “one-hybrid fitness for binding NBS DNA” value was not above 0.2. In the case of NLNA it was not above 0.2; in that of GQMS, not above 0.2; in that of PGLL, not above 0.2. In the case of WEAR it was not above 0.2. In the case of NSIG it was not above 0.2; in that of VEAR, not above 0.2. Consider TTDS, for which the “one-hybrid fitness for binding NBS DNA” value is not above 0.2. In the case of GLSI it was not above 0.2; in that of KRWY, not above 0.2. In the case of LQNL it was not above 0.2; in that of LCER, not above 0.2; in that of PGQT, not above 0.2. As for SIMK, the “one-hybrid fitness for binding NBS DNA” value is not above 0.2. In the case of HHIF it was not above 0.2; in that of DETT, not above 0.2; in that of KAPF, not above 0.2. In the case of HFEC it was not above 0.2; in that of MDAR, not above 0.2. In the case of HHNI it was not above 0.2; in that of VVGS, not above 0.2; in that of PDNL, not above 0.2. SAVA: the “one-hybrid fitness for binding NBS DNA” value is not above 0.2.

Consider QYKC, for which the “one-hybrid fitness for binding NBS DNA” value amounted to 0.371. In the case of WACS it was not above 0.2; in that of NAGM, not above 0.2. In the case of KRLL it was not above 0.2. In the case of NEKR it was not above 0.2; in that of LSKS, not above 0.2. Regarding CPHI, the “one-hybrid fitness for binding NBS DNA” value was not above 0.2. In the case of HSPW it was not above 0.2; in that of SRVA, not above 0.2; in that of PAHS, not above 0.2. For the variant EPST, the “one-hybrid fitness for binding NBS DNA” value was not above 0.2. In the case of KYER it was not above 0.2; in that of TSET, not above 0.2. In the case of NQNP it was not above 0.2; in that of GNSA, not above 0.2. In the case of VGNS it was not above 0.2; in that of PSAP, not above 0.2; in that of AHEG, not above 0.2.

Take WFTG: the “one-hybrid fitness for binding NBS DNA” value is not above 0.2. On to KYFS, for which the “one-hybrid fitness for binding NBS DNA” value is not above 0.2.

As to RMPE, the “one-hybrid fitness for binding NBS DNA” value is not above 0.2. In the case of SLVY it was not above 0.2; in that of ISMV, not above 0.2; in that of MAIV, not above 0.2. In the case of PQCG it was not above 0.2; in that of RMYA, not above 0.2. In the case of ATTD it was not above 0.2; in that of PYGW, not above 0.2; in that of RLWH, not above 0.2. On to MHAP, for which the “one-hybrid fitness for binding NBS DNA” value was not above 0.2. In the case of QSIE it was not above 0.2. As for AAEE, the “one-hybrid fitness for binding NBS DNA” value is not above 0.2. In the case of PRQD it was not above 0.2. In the case of MCTS it was not above 0.2. In the case of HCWY it was not above 0.2. On to CAMS, for which the “one-hybrid fitness for binding NBS DNA” value was not above 0.2.

With YDGS, the “one-hybrid fitness for binding NBS DNA” value is not above 0.2.

In the case of ADPG, the “one-hybrid fitness for binding NBS DNA” value is not above 0.2.

In the case of NAPH, the “one-hybrid fitness for binding NBS DNA” value was not above 0.2. In the case of KTTP it was not above 0.2; in that of MASS, not above 0.2; in that of GSLS, not above 0.2.

Turning to MLGC, the “one-hybrid fitness for binding NBS DNA” value was not above 0.2.

Regarding PSQF, the “one-hybrid fitness for binding NBS DNA” value was not above 0.2. Turning to YLDG, the “one-hybrid fitness for binding NBS DNA” value was not above 0.2. Turning to SNER, the “one-hybrid fitness for binding NBS DNA” value is not above 0.2.

With HAPA, the “one-hybrid fitness for binding NBS DNA” value was not above 0.2. With DQTE, the “one-hybrid fitness for binding NBS DNA” value is not above 0.2. Regarding TTQR, the “one-hybrid fitness for binding NBS DNA” value was not above 0.2. In the case of CTGG it was not above 0.2; in that of VVMF, not above 0.2; in that of RCFY, not above 0.2. In the case of VHNW it was not above 0.2. In the case of EMCG it was not above 0.2. On to TLTQ, for which the “one-hybrid fitness for binding NBS DNA” value was not above 0.2. In the case of TSFV it was not above 0.2; in that of LKGC, not above 0.2; in that of QQGT, 0.475. In the case of HWRG it was not above 0.2; in that of YVYP, not above 0.2. In the case of GIAA it was not above 0.2; in that of LTWC, not above 0.2; in that of FWNR, not above 0.2.

For the variant RTSN, the “one-hybrid fitness for binding NBS DNA” value is not above 0.2. In the case of HWDG it was not above 0.2; in that of SHAV, not above 0.2. In the case of MPLM it was not above 0.2; in that of HMWT, not above 0.2; in that of STPR, not above 0.2.

Turning to PKVP, the “one-hybrid fitness for binding NBS DNA” value was not above 0.2. In the case of APLL it was not above 0.2; in that of VYCS, not above 0.2; in that of ATQN, not above 0.2. In the case of HIDQ it was not above 0.2. In the case of PRTN it was not above 0.2; in that of FNKV, not above 0.2; in that of SCEG, not above 0.2. On to LATD, for which the “one-hybrid fitness for binding NBS DNA” value was not above 0.2. In the case of PSCS it was not above 0.2; in that of RSYV, not above 0.2; in that of PVMP, not above 0.2. In the case of ALTQ it was not above 0.2; in that of HNLC, not above 0.2. In the case of CICG it was not above 0.2.

Regarding KFLR, the “one-hybrid fitness for binding NBS DNA” value was not above 0.2. In the case of GFSG it was not above 0.2. With QPDH, the “one-hybrid fitness for binding NBS DNA” value is not above 0.2. In the case of RQHK it was not above 0.2; in that of FCHW, not above 0.2. In the case of VTHP it was not above 0.2. In the case of GCQP it was not above 0.2. For QAKT, the “one-hybrid fitness for binding NBS DNA” value was determined as 0.692. In the case of WHRL it was not above 0.2.

PCAW: the “one-hybrid fitness for binding NBS DNA” value is not above 0.2.
